“And” between values parts separate entries of the source, which are not always exact repeats. Equal values may be shown once.
Legend:
[1] = biological target: activated human T cells (CD4+ T cells, CD8+ T cells) (human); assay: cell-based or functional assay
[2] = biological target: T1, human OX40 on the cell surface (OX40 transfected Jurkat NF-κB-Luc reporter cells; engineered CHO cells) (human, UniProt P43489 29-277); assay: cell-based or functional assay
T1 sequence (looked up): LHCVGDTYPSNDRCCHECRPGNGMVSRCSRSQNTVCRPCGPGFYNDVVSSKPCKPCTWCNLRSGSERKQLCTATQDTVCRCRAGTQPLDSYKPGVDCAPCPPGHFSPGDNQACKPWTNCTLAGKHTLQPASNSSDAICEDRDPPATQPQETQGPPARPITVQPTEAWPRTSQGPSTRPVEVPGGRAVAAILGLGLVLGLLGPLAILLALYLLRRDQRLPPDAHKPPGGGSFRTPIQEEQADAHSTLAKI

[3] = biological target: T2, cynomolgus monkey PD-L1 on engineered CHO cells (cynomolgus monkey, UniProt G7PSE7 19-290); assay: flow cytometry on engineered CHO cells; four-parameter sigmoidal fit, 50% occupancy
T2 construct: whole, on cells

[4] = biological target: T3, cynomolgus monkey OX40 on engineered CHO cells (cynomolgus monkey); assay: flow cytometry on engineered CHO cells; four-parameter sigmoidal fit, 50% receptor occupancy
T3 chain: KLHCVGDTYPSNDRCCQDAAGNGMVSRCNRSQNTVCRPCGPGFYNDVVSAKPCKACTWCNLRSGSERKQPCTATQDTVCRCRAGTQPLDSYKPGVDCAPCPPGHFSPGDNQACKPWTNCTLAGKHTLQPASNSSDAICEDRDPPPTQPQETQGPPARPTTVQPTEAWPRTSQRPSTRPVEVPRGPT

[5] = biological target: T1, human OX40 on the cell surface (OX40 …); assay: as above
[6] = biological target: cynomolgus monkey OX40 and cynomolgus monkey PD-L1 expressed together on engineered CHO cells (cynomolgus monkey, UniProt G7PSE7 19-290); assay: flow cytometry on CHO cyno PD-L1/OX40 cells, AlexaFluor 647 goat anti-human IgG secondary, MFI

B1: Anti-PD1-OX40L FP BFP3 (wild type OX40L) (other)
heavy: EVQLVESGGGLVQPGGSLRLSCAASGFTFSDYGMHWVRQAPGKGLEWVAYISSGSYTIYSADSVKGRFTISRDNAKNSLYLQMNSLRAEDTAVYYCARRAPNSFYEYYFDYWGQGTTVTVSSASTKGPSVFPLAPCSRSTSESTAALGCLVKDYFPEPVTVSWNSGALTSGVHTFPAVLQSSGLYSLSSVVTVPSSSLGTKTYTCNVDHKPSNTKVDKRV[letters of human IgG4 Fc with S228P (EU numbers) not shown]GGGGSGGGGSGGGGSQVSHRYPRIQSIKVQFTEYKKEKGFILTSQKEDEIMKVQNNSVIINCDGFYLISLKGYFSQEVNISLHYQKDEEPLFQLKKVRSVNSLMVASLTYKDKVYLNVTTDNTSLDDFHVNGGELILIHQNPGEFCVLGGGGSGGGGSQVSHRYPRIQSIKVQFTEYKKEKGFILTSQKEDEIMKVQNNSVIINCDGFYLISLKGYFSQEVNISLHYQKDEEPLFQLKKVRSVNSLMVASLTYKDKVYLNVTTDNTSLDDFHVNGGELILIHQNPGEFCVLGGGGSGGGGSQVSHRYPRIQSIKVQFTEYKKEKGFILTSQKEDEIMKVQNNSVIINCDGFYLISLKGYFSQEVNISLHYQKDEEPLFQLKKVRSVNSLMVASLTYKDKVYLNVTTDNTSLDDFHVNGGELILIHQNPGEFCVL
light: QIVLTQSPATLSLSPGERATLSCSASSKHTNLYWSRHMYWYQQKPGQAPRLLIYLTSNRATGIPARFSGSGSGTDFTLTISSLEPEDFAVYYCQQWSSNPFTFGQGTKLEIKRTVAAPSVFIFPPSDEQLKSGTASVVCLLNNFYPREAKVQWKVDNALQSGNSQESVTEQDSKDSTYSLSSTLTLSKADYEKHKVYACEVTHQGLSSPVTKSFNRGEC
EC50 (read off the curve) [1]: ~0.1 nM and ~0.3 nM

B2: MEDI5615 (PD-L1/OX40L BFP2 bispecific molecule, IgG4P) (other)
chain: QVSHRYPRIQSIKVQFTEYKKEKGFILTSQKEDEIMKVQNNSVIINCDGFYLISLKGYFSQEVNISLHYQKDEEPLFQLKKVRSVNSLMVASLTYKDKVYLNVTTDNTSLDDFHVNGGELILIHQNPGEFCVLGGGGSGGGGSQVSHRYPRIQSIKVQFTEYKKEKGFILTSQKEDEIMKVQNNSVIINCDGFYLISLKGYFSQEVNISLHYQKDEEPLFQLKKVRSVNSLMVASLTYKDKVYLNVTTDNTSLDDFHVNGGELILIHQNPGEFCVLGGGGSGGGGSQVSHRYPRIQSIKVQFTEYKKEKGFILTSQKEDEIMKVQNNSVIINCDGFYLISLKGYFSQEVNISLHYQKDEEPLFQLKKVRSVNSLMVASLTYKDKVYLNVTTDNTSLDDFHVNGGELILIHQNPGEFCVLGGGGSGGGGSGGGGS[letters of human IgG4 Fc with S228P (EU numbers) not shown]GGGGSGGGGSEIVLTQSPGTLSLSPGERATLSCRASQRVSSSYLAWYQQKPGQAPRLLIYDASSRATGIPDRFSGSGSGTDFTLTISRLEPEDFAVYYCQQYGSLPWTFGCGTKVEIKGGGGSGGGGSGGGGSGGGGSEVQLVESGGGLVQPGGSLRLSCAASGFTFSRYWMSWVRQAPGKCLEWVANIKQDGSEKYYVDSVKGRFTISRDNAKNSLYLQMNSLRAEDTAVYYCAREGGWFGELAFDYWGQGTLVTVSS
EC50, NF-κB luciferase in human OX40-expressing Jurkat T cells with CD32A-expressing HEK293 cells [2]: 52 pM
EC50, NF-κB luciferase in human OX40-expressing Jurkat T cells with PD-L1 expressing MDA-MB231 cells [2]: 18 pM
EC50 [3]: 0.11 nM
EC50 [4]: 0.056 nM
EC50 [5]: 0.18 nM

B3: PD-L1 F180A OX40L BFP2 (other)
chain: QVSHRYPRIQSIKVQFTEYKKEKGFILTSQKEDEIMKVQNNSVIINCDGFYLISLKGYFSQEVNISLHYQKDEEPLFQLKKVRSVNSLMVASLTYKDKVYLNVTTDNTSLDDFHVNGGELILIHQNPGEACVLGGGGSGGGGSQVSHRYPRIQSIKVQFTEYKKEKGFILTSQKEDEIMKVQNNSVIINCDGFYLISLKGYFSQEVNISLHYQKDEEPLFQLKKVRSVNSLMVASLTYKDKVYLNVTTDNTSLDDFHVNGGELILIHQNPGEACVLGGGGSGGGGSQVSHRYPRIQSIKVQFTEYKKEKGFILTSQKEDEIMKVQNNSVIINCDGFYLISLKGYFSQEVNISLHYQKDEEPLFQLKKVRSVNSLMVASLTYKDKVYLNVTTDNTSLDDFHVNGGELILIHQNPGEACVLGGGGSGGGGSGGGGS[letters of human IgG4 Fc with S228P (EU numbers) not shown]GGGGSGGGGSEIVLTQSPGTLSLSPGERATLSCRASQRVSSSYLAWYQQKPGQAPRLLIYDASSRATGIPDRFSGSGSGTDFTLTISRLEPEDFAVYYCQQYGSLPWTFGCGTKVEIKGGGGSGGGGSGGGGSGGGGSEVQLVESGGGLVQPGGSLRLSCAASGFTFSRYWMSWVRQAPGKCLEWVANIKQDGSEKYYVDSVKGRFTISRDNAKNSLYLQMNSLRAEDTAVYYCAREGGWFGELAFDYWGQGTLVTVSS
EC50 (read off the curve) [6]: ~60 pM
